Test results taken from the supplement of paper PMC9433436.
± gives the standard deviation of the averaged measurements. The full ranking holds about 4,100 sequences; the median of “relative kcat/Km (krel) vs genomic leader AAAGAU” is about 1.7, and the highest 2% start at about 6.5. This is a selection; strong and weak results do not stand in their true shares.

Target: T1, E. coli RNase P holoenzyme (M1 P RNA + rnpA protein) (UniProt P0A7Y8)
T1 sequence: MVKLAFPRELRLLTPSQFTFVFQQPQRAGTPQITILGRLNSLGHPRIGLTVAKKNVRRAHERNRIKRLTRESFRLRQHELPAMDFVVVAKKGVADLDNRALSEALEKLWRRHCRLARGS
Test: relative kcat/Km (krel) vs genomic leader AAAGAU (relative (reference leader = 1)); higher = faster RNase P cleavage
Experimental: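 HTS-Kin: a pool of ptRNA-Met (21C construct) with all 4096 combinations of 5' leader nucleotides N(-6) to N(-1) was processed in vitro by E. coli RNase P (P RNA + rnpA/C5 protein) under multiple-turnover conditions at 37 C, pH 8, 17.5 mM MgCl2. Residual substrate was Illumina-sequenced at several fractions reacted, and relative kcat/Km (krel) was computed by internal competition kinetics, calibrated to the genomic leader (AAAGAU = 1). The listed hexamer is the varied N(-6)..N(-1) leader (DNA letters), and it sits between a fixed 5' stem-loop flank (GCAUGCACGAAAGUGCGUGCUAUGAA) and the mature tRNA-Met starting GGCUACGUAGCUCAGUUGG. Two technical replicates are averaged.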

[1] = fraction of substrate reacted: ~9-10% (9.79% repeat 1, 9.1% repeat 2)
[2] = fraction of substrate reacted: ~13-16% (15.68% repeat 1, 13.17% repeat 2)
[3] = fraction of substrate reacted: ~26-29% (28.66% repeat 1, 26.4% repeat 2)

| Sequence | relative kcat/Km [1] | relative kcat/Km [2] | relative kcat/Km [3] |
| --- | --- | --- | --- |
| AGTCCT | 2 ± 0.37 | 2.46 ± 0.26 | 3.91 ± 1.6 |
| ATGCTG |  |  | 0.658 ± 0.54 |
| GAGCGG |  |  | 0.639 ± 0.21 |
| TCACAT | 3.6 ± 1.2 | 4.18 ± 0.55 | 6.08 ± 2.7 |
| AATAGA | 1.72 ± 1.3 | 1.85 ± 0.39 | 3.29 ± 0.63 |
| CTTTAT | 4.88 ± 2 | 5.78 ± 0.63 | 8.16 ± 3.3 |
| GCCGCA | 2.3 ± 0.6 | 3.11 ± 0.086 | 5.08 ± 1.7 |
| ACGAAG |  |  | 1.32 ± 0.25 |
| CGTCCG | 1.52 ± 0.75 | 0.713 ± 0.56 | 1.16 ± 0.23 |
| AAACAT | 2.43 ± 1.1 | 2.55 ± 0.06 | 3.53 ± 1.4 |
| GCGGCC | 1.21 ± 0.092 | 0.582 ± 0.12 | 0.642 ± 0.18 |
| CTTTCC | 1.8 ± 0.6 | 2.12 ± 0.92 | 2.57 ± 0.53 |
| TCGAAC | 3.55 ± 1.6 | 3.72 ± 0.18 | 5.15 ± 2.2 |
| ATCACC | 3.18 ± 0.62 | 3.68 ± 1 | 5.67 ± 2 |
| GTCCTT | 3.67 ± 1 | 4.82 ± 0.56 | 7.02 ± 2.8 |
| GTGGCA |  |  | 1.12 ± 0.86 |
| AGATAA | 2.59 ± 0.14 | 3.51 ± 0.92 | 5.48 ± 2.6 |
| TCCGTA | 2.85 ± 0.05 | 3.62 ± 0.96 | 5.51 ± 2.2 |
| TCGTTT | 2.4 ± 0.025 | 2.68 ± 0.65 | 4.26 ± 2.1 |
| CCTCAA | 2.75 ± 1.1 | 1.99 ± 0.35 | 3.05 ± 0.33 |
| AAACCC | 1.64 ± 0.95 | 0.786 ± 0.21 | 1.32 ± 0.083 |
| ATCGAG | 2.14 ± 2.1 | 1.29 ± 0.12 | 3.85 ± 0.66 |

| Sequence | relative kcat/Km [1] | relative kcat/Km [2] | relative kcat/Km [3] |
| --- | --- | --- | --- |
| GAGTAT | 2.33 ± 0.52 | 3.07 ± 0.75 | 4.38 ± 2.1 |
| AGCCTT | 2.12 ± 0.94 | 2.28 ± 0.084 | 2.73 ± 0.55 |
| ACTAAT | 1.95 ± 0.5 | 2.38 ± 0.53 | 3.22 ± 1.2 |
| GATAAT | 1.93 ± 0.55 | 2.59 ± 1 | 4.06 ± 2.4 |
| AGGCCG |  |  | 0.467 ± 0.21 |
| AGATGG | 0.596 ± 0.51 |  | 0.719 ± 0.16 |
| CAATGT |  | 1.9 ± 1.3 | 2.04 ± 1.8 |
| TCTTAA | 3.57 ± 1.1 | 4.04 ± 0.61 | 5.75 ± 2.3 |
| GGGGTC |  |  | 1.83 ± 1.7 |
| TTAAGG |  |  | 1.04 ± 0.041 |
| GAGGTT |  |  | 1.79 ± 1.5 |
| TGCGTT | 0.865 ± 0.51 | 0.933 ± 0.25 | 1.31 ± 0.86 |
| GACCCG |  | 0.0485 ± 0.04 | 1.32 ± 0.2 |
| TTATTC | 2.83 ± 1.9 | 2.92 ± 0.69 | 3.96 ± 1.2 |
| CGGGTT | 0.764 ± 0.66 |  |  |
| AGATGA | 2.02 ± 0.56 | 2.67 ± 1.2 | 4.17 ± 1.6 |
| CTACTT | 2.09 ± 0.14 | 2.2 ± 0.49 | 2.49 ± 0.63 |
| TGATCT | 2 ± 0.61 | 2.08 ± 0.73 | 3.43 ± 1.4 |
| TATGTT | 0.82 ± 0.16 | 1.39 ± 0.41 | 1.53 ± 1 |
| TCTCCG | 0.763 ± 0.37 |  | 1.1 ± 0.078 |
| GTACTA | 1.56 ± 1.2 | 1.31 ± 0.12 | 1.83 ± 0.47 |
| CCTTGC | 1.73 ± 0.64 | 3.05 ± 0.32 | 4.58 ± 2.1 |

| Sequence | relative kcat/Km [1] | relative kcat/Km [2] | relative kcat/Km [3] |
| --- | --- | --- | --- |
| GTCCAC | 5.04 ± 1.9 | 6.06 ± 1.1 | 8.78 ± 3.9 |
| CTACTA | 1.85 ± 0.72 | 1.606 ± 0.0065 | 1.72 ± 0.24 |
| GCCTCT | 1.92 ± 0.21 | 1.99 ± 0.65 | 3.56 ± 1.4 |
| ACGATG |  | 1.64 ± 0.42 | 2.2 ± 0.16 |
| ATTCCG |  |  | 1.01 ± 0.26 |
| TAAGTC | 1.12 ± 0.53 | 1.2 ± 0.022 | 1.55 ± 0.57 |
| TTTCAT | 4.15 ± 1.4 | 5.11 ± 0.89 | 7.53 ± 3.4 |
| ATGCCA |  |  | 0.781 ± 0.74 |
| CAGCAC | 1.44 ± 0.45 | 1.95 ± 0.54 | 3.8 ± 0.91 |
| GCATTA | 0.689 ± 0.68 | 1.14 ± 0.2 | 1.64 ± 0.63 |
| ATCTGT |  | 1.3 ± 1.2 | 1.76 ± 1.5 |
| CGAGGC | 0.214 ± 0.16 | 0.405 ± 0.38 | 0.974 ± 0.58 |
| CTGAAT | 2.16 ± 0.24 | 2.25 ± 0.29 | 3.01 ± 0.25 |
| AAGGCG | 0.605 ± 0.13 | 0.438 ± 0.18 | 0.43 ± 0.023 |
| GCACCC |  |  | 1.92 ± 1.6 |
| AATACA | 1.91 ± 0.78 | 1.7 ± 0.041 | 2.02 ± 0.66 |
| TCTTTC | 2.38 ± 0.92 | 2.65 ± 1.3 | 3.46 ± 1.2 |
| GTCGTA | 2.55 ± 1.1 | 2.7 ± 0.23 | 3.88 ± 0.79 |
| ATGTTA | 1.74 ± 0.75 | 2.13 ± 0.6 | 2.8 ± 0.81 |
| GAATAG | 1.46 ± 0.94 | 1.08 ± 0.3 | 2.88 ± 1.1 |
| AGAATC | 2.63 ± 1.3 | 2.27 ± 0.42 | 2.61 ± 0.55 |
| TTCAAG | 2.98 ± 2.4 | 3.38 ± 0.47 | 5.77 ± 2 |
